Measured values reported in publication PMC4755750.
No constants are given. Whether binding was seen depends on the method and setting. In cells and extracts the contact can be indirect. Some entries that bind do so weakly or less than the wild type. Tags and fused reporters may be left off the sequences shown.

T1: CIDEA-HA (mouse) (UniProt O70302)
T1 sequence: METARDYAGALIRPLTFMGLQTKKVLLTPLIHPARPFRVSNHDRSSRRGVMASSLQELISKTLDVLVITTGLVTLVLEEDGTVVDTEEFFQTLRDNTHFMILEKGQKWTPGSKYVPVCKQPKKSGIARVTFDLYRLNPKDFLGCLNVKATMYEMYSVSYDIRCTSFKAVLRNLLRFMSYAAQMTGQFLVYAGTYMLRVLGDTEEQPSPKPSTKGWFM

B1: CIDEA-v5 (protein, UniProt O70302 1-217)
chain: METARDYAGALIRPLTFMGLQTKKVLLTPLIHPARPFRVSNHDRSSRRGVMASSLQELISKTLDVLVITTGLVTLVLEEDGTVVDTEEFFQTLRDNTHFMILEKGQKWTPGSKYVPVCKQPKKSGIARVTFDLYRLNPKDFLGCLNVKATMYEMYSVSYDIRCTSFKAVLRNLLRFMSYAAQMTGQFLVYAGTYMLRVLGDTEEQPSPKPSTKGWFM
B2: hCIDEC-v5 (protein, UniProt Q96AQ7 1-238)
chain: MEYAMKSLSLLYPKSLSRHVSVRTSVVTQQLLSEPSPKAPRARPCRVSTADRSVRKGIMAYSLEDLLLKVRDTLMLADKPFFLVLEEDGTTVETEEYFQALAGDTVFMVLQKGQKWQPPSEQGTRHPLSLSHKPAKKIDVARVTFDLYKLNPQDFIGCLNVKATFYDTYSLSYDLHCCGAKRIMKEAFRWALFSMQATGHVLLGTSCYLQQLLDATEEGQPPKGKASSLIPTCLKILQ
B3: hCIDEC-(E186X)-v5 (domain or fragment, UniProt Q96AQ7 1-185)
chain: MEYAMKSLSLLYPKSLSRHVSVRTSVVTQQLLSEPSPKAPRARPCRVSTADRSVRKGIMAYSLEDLLLKVRDTLMLADKPFFLVLEEDGTTVETEEYFQALAGDTVFMVLQKGQKWQPPSEQGTRHPLSLSHKPAKKIDVARVTFDLYKLNPQDFIGCLNVKATFYDTYSLSYDLHCCGAKRIMK
B4: CIDEA-(116–217)-v5 (domain or fragment, UniProt O70302 116-217)
chain: PVCKQPKKSGIARVTFDLYRLNPKDFLGCLNVKATMYEMYSVSYDIRCTSFKAVLRNLLRFMSYAAQMTGQFLVYAGTYMLRVLGDTEEQPSPKPSTKGWFM
B5: CIDEA-(R171E/R175E)-v5 (protein, UniProt O70302 1-217)
chain: METARDYAGALIRPLTFMGLQTKKVLLTPLIHPARPFRVSNHDRSSRRGVMASSLQELISKTLDVLVITTGLVTLVLEEDGTVVDTEEFFQTLRDNTHFMILEKGQKWTPGSKYVPVCKQPKKSGIARVTFDLYRLNPKDFLGCLNVKATMYEMYSVSYDIRCTSFKAVLENLLEFMSYAAQMTGQFLVYAGTYMLRVLGDTEEQPSPKPSTKGWFM
B6: CIDEA-△(162–197)-v5 (protein, UniProt O70302)
chain: METARDYAGALIRPLTFMGLQTKKVLLTPLIHPARPFRVSNHDRSSRRGVMASSLQELISKTLDVLVITTGLVTLVLEEDGTVVDTEEFFQTLRDNTHFMILEKGQKWTPGSKYVPVCKQPKKSGIARVTFDLYRLNPKDFLGCLNVKATMYEMYSVSYDIVLGDTEEQPSPKPSTKGWFM
B7: CIDEA-△(126–155)-v5 (protein, UniProt O70302)
chain: METARDYAGALIRPLTFMGLQTKKVLLTPLIHPARPFRVSNHDRSSRRGVMASSLQELISKTLDVLVITTGLVTLVLEEDGTVVDTEEFFQTLRDNTHFMILEKGQKWTPGSKYVPVCKQPKKSGSVSYDIRCTSFKAVLRNLLRFMSYAAQMTGQFLVYAGTYMLRVLGDTEEQPSPKPSTKGWFM
B8: CIDEB (protein, UniProt O70303 1-219)
chain: MEYLSAFNPNGLLRSVSTVSSELSRRVWNSAPPPQRPFRVCDHKRTVRKGLTAASLQELLDKVLETLLLRGVLTLVLEEDGTAVDSEDFFQLLEDDTCLMVLEQGQSWSPKSGMLSYGLGREKPKHSKDIARITFDVYKQNPRDLFGSLNVKATFYGLYSMSCDFQGVGPKRVLRELLRWTSSLLQGLGHMLLGISSTLRHVVEGADRWQWHGQRHLHS
B9: CIDEC (protein, UniProt P56198 1-239)
chain: MDYAMKSLSLLYPRSLSRHVAVSTAVVTQQLVSKPSRETPRARPCRVSTADRKVRKGIMAHSLEDLLNKVQDILKLKDKPFSLVLEEDGTIVETEEYFQALAKDTMFMVLLKGQKWKPPSEQRKKRAQLALSQKPTKKIDVARVTFDLYKLNPQDFIGCLNVKATLYDTYSLSYDLHCYKAKRIVKEMLRWTLFSMQATGHMLLGTSSYMQQFLDATEEEQPAKAKPSSLLPACLKMLQ
B10: PLIN5 (protein, UniProt Q8BVZ1 1-463)
chain: MDQRGEDTTLAPHSRMSGDQTAQDPGSSLGELDQQNVVNRVVALPLVKATCTAVSSAYNSAKDRHPLLGSACRLAEHCVCSVTTCALDHAQPLLEHLQPQLATVNDLACRGLDKLEEKLPFLQQPSDMVVTSAKDTVAKSVTGMVDLAQRGRRWSGELRRSMSQAMDMVLGKSEKLVDRFLPMTEAELAVLAAEAEGPEVGTVEEQRQQQGYFVRLGSLSARLRHLAYEHSLGKLRQSKHRTQEMLAQLQETLELIQHMQRGASPSPTFHPPKTQELWGSWSPCLENGRSHSEVELETLALSRSLTLELQNAVDALAGCVRGLPPSAQAKVAEVQRSVDALQATFADAHCLGDVAPTALAEGRGSVARAHACVDEFLDLVLRAMPLPWLVGPFAPILVEQSEPLINLATCVDEVVGDPDPRWAHMDWPAQKRAWEAESADPGGQEAEPPRGQGKHTMMPELDF
B11: CIDEA-(1–118)-v5 (domain or fragment, UniProt O70302 1-118)
chain: METARDYAGALIRPLTFMGLQTKKVLLTPLIHPARPFRVSNHDRSSRRGVMASSLQELISKTLDVLVITTGLVTLVLEEDGTVVDTEEFFQTLRDNTHFMILEKGQKWTPGSKYVPVC
B12: DFF40 (protein, UniProt O54788 1-344)
chain: MCAVLRQPKCVKLRALHSACKFGVAARSCQELLRKGCVRFQLPMPGSRLCLYEDGTEVTDDCFPGLPNDAELLLLTAGETWHGYVSDITRFLSVFNEPHAGVIQAARQLLSDEQAPLRQKLLADLLHHVSQNITAETREQDPSWFEGLESRFRNKSGYLRYSCESRIRGYLREVSAYTSMVDEAAQEEYLRVLGSMCQKLKSVQYNGSYFDRGAEASSRLCTPEGWFSCQGPFDLESCLSKHSINPYGNRESRILFSTWNLDHIIEKKRTVVPTLAEAIQDGREVNWEYFYSLLFTAENLKLVHIACHKKTTHKLECDRSRIYRPQTGSRRKQPARKKRPARKR
B13: DFF45 (protein, UniProt O54786 1-331)
chain: MELSRGASAPDPDDVRPLKPCLLRRNHSRDQHGVAASSLEELRSKACELLAIDKSLTPITLVLAEDGTIVDDDDYFLCLPSNTKFVALACNEKWIYNDSDGGTAWVSQESFEADEPDSRAGVKWKNVARQLKEDLSSIILLSEEDLQALIDIPCAELAQELCQSCATVQGLQSTLQQVLDQREEARQSKQLLELYLQALEKEGNILSNQKESKAALSEELDAVDTGVGREMASEVLLRSQILTTLKEKPAPELSLSSQDLESVSKEDPKALAVALSWDIRKAETVQQACTTELALRLQQVQSLHSLRNLSARRSPLPGEPQRPKRAKRDSS

What follows are binders tested against T1, CIDEA-HA (mouse) (assay: co-IP; anti-HA or anti-V5 antibody on Dynabeads Protein G incubated with lysate of transfected cells (Hela named for Figure 6K); lysis in 50 mM Tris pH 8.0, 150 mM NaCl, 1% TRITON X-100; Western blot).

Row | Binder | binding
1 | B1 | binds
2 | B2 | binds
3 | B3 | binds
4 | B4 | binds
5 | B5 | binds
6 | B6 | binds
7 | B7 | binds weakly
8 | B8 | binds
9 | B9 | binds
10 | B10 | binds
11 | B11 | no binding
12 | B12 | no binding
13 | B13 | no binding
